The whole screen tested about 110,000 compounds, of which about 230 (0.21%) showed an effect of 50% or more. The list shows a part of the results.
target: DPAP1 (Plasmodium falciparum, UniProt Q8IIJ9); experiment: primary screen, percent inhibition; read by cleavage of a fluorogenic dipeptide substrate; higher = more effect of the substance; design: species or system P. falciparum D10 trophozoite lysates; single well
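Also: 30 min substrate incubation versus DMSO and 10 µM JCP410 controls.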

Sequence of DPAP1 (Q8IIJ9 whole entry, looked up): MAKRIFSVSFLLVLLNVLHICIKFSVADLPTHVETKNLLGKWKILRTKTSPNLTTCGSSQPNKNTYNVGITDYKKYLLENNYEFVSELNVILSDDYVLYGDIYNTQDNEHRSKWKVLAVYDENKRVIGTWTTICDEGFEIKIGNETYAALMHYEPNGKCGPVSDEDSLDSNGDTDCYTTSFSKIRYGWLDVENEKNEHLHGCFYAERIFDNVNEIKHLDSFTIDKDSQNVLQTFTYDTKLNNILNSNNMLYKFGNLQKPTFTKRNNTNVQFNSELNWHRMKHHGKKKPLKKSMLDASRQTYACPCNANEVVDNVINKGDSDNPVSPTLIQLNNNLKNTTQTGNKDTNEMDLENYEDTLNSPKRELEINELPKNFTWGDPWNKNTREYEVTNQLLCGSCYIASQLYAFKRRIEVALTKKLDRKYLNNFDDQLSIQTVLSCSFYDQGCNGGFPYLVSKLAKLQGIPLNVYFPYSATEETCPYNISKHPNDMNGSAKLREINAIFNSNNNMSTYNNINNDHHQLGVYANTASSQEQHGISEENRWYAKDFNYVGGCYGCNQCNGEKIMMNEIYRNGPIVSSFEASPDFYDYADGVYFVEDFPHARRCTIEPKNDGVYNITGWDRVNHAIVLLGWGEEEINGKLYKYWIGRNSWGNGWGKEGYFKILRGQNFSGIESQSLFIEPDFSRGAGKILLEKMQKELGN

SMILES	% Inhibition @ 10 uM
COc1ccc(-c2csc3ncn(Cc4cccc(C)c4)c(=O)c23)cc1OC	-1.6%
O=C(Nc1ccccn1)c1ccc(F)cc1	0.275%
C=Cc1ccc(Cn2c(C(=O)O)c(CNCc3ccc(OC)cc3)c3ccccc32)cc1	-5.05%
O=C(Nc1ccc(I)cc1)C(c1ccccc1)c1ccccc1	-2.03%
Cc1ccccc1OCC(=O)Nc1ccccn1	-0.872%
CCOC(=O)c1ccc(S(=O)(=O)NC2CCCCCCC2)n1C	3.07%
COc1ccc(NS(=O)(=O)c2ccc(NC(=O)c3ccccc3)cc2)nn1	4.42%
Clc1cncc(N2CCN(c3ccccc3)CC2)n1	6.79%
COc1ccc(-c2csc(/C(C#N)=C/c3ccccc3OC)n2)cc1	-4.21%
CC(=O)Nc1ccc(NC(=O)c2ccncc2)cc1	8.68%
Cc1cccc(C)c1NC(=O)C(C)(C)N(C)C(=O)CN1C(=O)c2ccccc2C1=O	-5.51%
Cc1ccc(C)c(CN(C)CC(O)c2ccccc2)c1 (stereo not drawn)	-3.5%
CCc1c(CN2CCN(Cc3ccccc3)CC2)csc1C	2.03%
COc1ccc(CNC(=O)c2cnn3c(C)c(Cc4cc(C)ccc4C)c(C)nc23)cc1	-0.519%
COc1cccc(C2CC(C(F)(F)F)n3ncc(C(=O)NCCCn4ccnc4)c3N2)c1 (stereo not drawn)	-1.72%
Cc1c(C=C2C(=O)NC(=O)NC2=O)cc(-c2ccccc2)n1-c1ccccc1	6.94%
Cc1ccc(NC(=O)CNc2ccc(OC(C)C)cc2)c(C)c1	3.97%
O=c1oc2cc(O)ccc2cc1-c1nc2ccccc2[nH]1	4.61%
COCCN(Cc1ccco1)C(=O)c1c(C)oc2ncn(C)c(=O)c12	-0.171%
COc1cc(S(=O)(=O)N2CC=C(c3ccc(F)cc3)CC2)ccc1-n1cnnn1	0.635%
CN(Cc1ccccc1)S(=O)(=O)c1ccc(N2C(=O)c3ccccc3C2=O)cc1	1.65%
CC(C)(C)NC(=O)Cc1coc2ccc3ccccc3c12	2.95%
CCOc1ccc(NC(=O)CC2SC(Nc3ccccc3C)=NC2=O)cc1 (stereo not drawn)	-10.6%
N#Cc1ccccc1NC(=O)COc1ccc2ccccc2c1Br	-1.06%
Clc1ccc(Cc2noc(C34CC5CC(CC(C5)C3)C4)n2)cc1	5.75%
COc1ccc(CNC(=O)C2CCC(C/N=c3/c(N4CCC(C)CC4)c(O)c3=O)CC2)cc1 (stereo not drawn)	1.02%

SMILES	% Inhibition @ 10 uM
COc1cccc(C2C3=C(O)CC(C)(C)CC3=NC(C)=C2C(=O)Nc2nc3ccccc3s2)c1 (stereo not drawn)	2.7%
CSc1nc2c(c(=O)[nH]c(=O)n2C)n1Cc1ccccc1Cl	-4.43%
COc1cc(OC)c(OC)cc1CN(C)C1CCN(C)CC1	-2.81%
O=C(c1ccc(F)cc1)c1coc2ccc(Cl)cc2c1=O	-3.26%
COc1ccc(-c2nnc(SCc3csc(N)n3)o2)cc1	0.776%
Nc1c(-c2nc(-c3cccnc3)no2)nnn1-c1ccc(Cl)cc1	3.98%
Cc1[nH]c2ccccc2c1/C=N/CCc1ccncc1	-7.3%
O=c1[nH]c2sc3c(c2c(=O)n1Cc1ccccc1)CCCC3	-1.29%
COc1ccc2c(c1)CC/C(=C\c1sccc1C)C2=O	6.11%
O=C(Cc1ccc(Br)cc1)N1CCN(C(=O)c2ccco2)CC1	-3.19%
CCn1cnc2cc(NC(=O)c3cccs3)ccc21	-3.45%
Cc1ccc(C(=O)O)cc1-n1cccc1	6.73%
O=C(COc1ccc(S(=O)(=O)NC2CCCC2)cc1)Nc1ccc(C(F)(F)F)cc1	5.66%
COc1ccc(OC)c(S(=O)(=O)NCc2cn3ccccc3n2)c1	-5.37%
CN1CCC(=C2c3ccccc3CC(O)c3sccc32)CC1 (stereo not drawn)	-11.2%
Cc1cccc(NC(=O)CCCC(=O)O)c1C	-4.35%
CC(C(=O)N1CCCc2c1c(=O)oc1ccc(O)cc21)N1CCc2ccccc2C1 (stereo not drawn)	5.32%
Cc1ccc2nc3c(O)n(Cc4ccc(Cl)cc4)cnc-3c2c1	-0.0235%
Cc1cc(NC(=O)c2ccccc2F)no1	-1.1%
Cc1oc(-c2ccsc2)[n+]([O-])c1C	-3.78%
CC(=O)Nc1ccc(CN2CCN(c3ccccc3)CC2)cc1	-4.61%
Cc1ccc(-c2noc(CNc3ccccc3)n2)cc1	0.161%
O=C1C2C(c3ccccc3)OC3(C(=O)c4ccccc4C3=O)C2C(=O)N1C1CCCCC1 (stereo not drawn)	0.35%
CC(C)c1ccccc1OCC(=O)Nc1ccc(S(=O)(=O)NC2CCCCC2)cc1	-1.35%
Cc1c(-c2nsc(NC(=O)c3cccc(F)c3)n2)nnn1-c1cc(F)ccc1F	-1.02%

— publication PMC6919601, “Identification of Plasmodium dipeptidyl aminopeptidase allosteric inhibitors by high throughput screening” (PLoS ONE, 2019)
